{
  "source": "PubChem BioAssay AID504832",
  "about": "(National Center for Advancing Translational Sciences (NCATS), 2011)",
  "note": "Among all 310,000 compounds or so, about 18,000 (5.8%) were called active. Inconclusive results, whose numbers are uncertain, are shown with a selection of clear calls. Calls follow the shape of the dose curve; as a rule, active = well fitted inhibition curve with a large enough effect; inconclusive = small, poorly fitted or top-dose-only effect, or another doubt; inactive = no such curve, though single readings can be large or run the other way. No potency is given beside an inconclusive call; the fits are too rough. Potency is read from the fitted curve at half-maximal effect; tags tell the direction and shape of the fitted curve.",
  "data": [
    {"experiment": "Primary qHTS for delayed death inhibitors of the malarial parasite plastid, 48 hour incubation", "settings": "P. falciparum luciferase growth in erythrocytes; series mostly up to 28.7 µM", "procedure,_shortened": "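A one-generation exposure of luciferase-tagged malaria parasites in RPMI 1640/Albumax erythrocyte culture, 37 C and 5% CO2. Inhibition is inferred from decreased luminescence after adding detection reagent.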", "values": [
      {"smiles": "CN1C(=O)[C@H]2[C@@H](/C=C/c3ccccc3)N3C(=O)CN(CCO)C(=O)[C@@]3(C)[C@H]2C1=O", "Potency": "inconclusive [inhibitor, partial curve, poor fit]"},
      {"smiles": "CN(C(=O)COC(=O)c1cc(S(=O)(=O)N2CCCCC2)ccc1Cl)c1ccccc1", "Potency": "inconclusive [inhibitor, single point]"},
      {"smiles": "FC(F)(F)C1=CC(c2ccccc2)=NCCN1", "Potency": "inconclusive [inhibitor, single point]"},
      {"smiles": "CCCc1nc2ccccc2c(C(=O)OCC(=O)Nc2ccc(S(=O)(=O)N3CCOCC3)cc2)c1CC", "Potency": "active: 14.7 µM"},
      {"smiles": "Cc1ccc2nc(NS(=O)(=O)c3cn(C)nc3C)sc2c1", "Potency": "inconclusive [inhibitor, partial curve]"},
      {"smiles": "COC(=O)c1cccc(C(=O)N2CCCC(C(=O)c3cc(F)ccc3F)C2)c1", "note": "(configuration not stated)", "Potency": "inactive"},
      {"smiles": "O=C(CSCc1cnn(-c2ccccc2)c1-n1cccc1)NCc1ccccn1", "Potency": "inconclusive [inhibitor, single point]"},
      {"smiles": "Cc1ccc(-n2cccc2/C=C2\\C(=N)N3N=C(c4ccco4)SC3=NC2=O)cc1", "Potency": "inconclusive [inhibitor, partial curve, poor fit]"},
      {"smiles": "Cc1nc2ccccn2c1C(=O)NC1CCCc2ccccc21", "note": "(configuration not stated)", "Potency": "active: 9.28 µM"},
      {"smiles": "O=C(CNC(=O)c1ccc(Cl)c([N+](=O)[O-])c1)OC1CCCCC1=O", "note": "(configuration not stated)", "Potency": "inactive"},
      {"smiles": "CN(C)C=Nc1nc2ccccc2nc1N1CCCC1", "Potency": "inactive"},
      {"smiles": "COc1ccc(CNC(=O)C2CCCN(c3nc4ccccc4o3)C2)c(OC)c1", "note": "(configuration not stated)", "Potency": "inconclusive [inhibitor, full curve, poor fit]"},
      {"smiles": "CS(=O)(=O)c1ccc2nc(NC(=O)Nc3ccc(Cl)c(Cl)c3)sc2c1", "Potency": "inactive"},
      {"smiles": "CN(CC(=O)NNC(=O)CNC(=O)c1cccs1)S(=O)(=O)c1ccc(Cl)cc1", "Potency": "inactive"},
      {"smiles": "O=C(CC1C(=O)N(c2ccc(Cl)cc2)C(=S)N1CCc1ccncc1)Nc1ccc(F)cc1", "note": "(configuration not stated)", "Potency": "inconclusive [inhibitor, partial curve, poor fit]"},
      {"smiles": "COC(=O)c1ccc(Oc2cc(C)nc(NCc3ccccc3)n2)cc1", "Potency": "inconclusive [inhibitor, partial curve]"},
      {"smiles": "CCOC(=O)c1c(C)oc2c1C(=O)c1ccccc1C2=O", "Potency": "active: 0.738 µM"},
      {"smiles": "COc1cccc(N2CCN(C(=O)CCS(=O)(=O)c3ccc4c(c3)oc(=O)n4C)CC2)c1", "Potency": "inconclusive [inhibitor, single point]"},
      {"smiles": "COc1ccc(NC(=O)CSc2nc(C)c3c(c2C#N)CCCC3)cc1", "Potency": "inactive"},
      {"smiles": "CCn1c(SCC(=O)NCC2CCCO2)nc2c(c1=O)SC(C)C2", "note": "(configuration not stated)", "Potency": "inconclusive [inhibitor, single point]"},
      {"smiles": "Cc1cc[n+](CC[n+]2ccc(C)cc2)cc1", "Potency": "inactive"},
      {"smiles": "Cc1ccc(N(C(=O)CS(=O)CC(=O)Nc2ccc(F)cc2)C(C(=O)NC2CCCCC2)c2ccco2)cc1", "note": "(configuration not stated)", "Potency": "inconclusive [inhibitor, partial curve]"},
      {"smiles": "C/C(=N\\NC(=O)OC(C)(C)C)c1ccc(-n2ccnc2)cc1", "Potency": "inactive"},
      {"smiles": "CCN1CCN(CCNC(=O)c2ccc3c(c2)N(Cc2ccc(F)cc2)C(=O)/C(=C/c2ccccc2)S3)CC1", "Potency": "active: 6.57 µM"},
      {"smiles": "Cc1ccc(S(=O)(=O)CCC(=O)N(C)c2c(N)n(Cc3ccccc3)c(=O)[nH]c2=O)cc1", "Potency": "inconclusive [inhibitor, single point]"},
      {"smiles": "CC(=O)c1cccc(NC(=O)N(c2ccccc2)c2ccccc2)c1", "Potency": "inconclusive [inhibitor, full curve, poor fit]"},
      {"smiles": "CCC1C/C(=C\\c2cccnc2)C(=O)/C(=C/c2cccnc2)C1", "note": "(configuration not stated)", "Potency": "active: 7.38 µM"},
      {"smiles": "COc1ccc(NC(=O)NCCN2CCCCC2)cc1", "Potency": "inactive"},
      {"smiles": "CCOc1ccc(OCCN2CCCCC2)cc1", "Potency": "inactive"},
      {"smiles": "COc1cc(C(=O)c2nccc3cc(OC)c(OC)cc23)c([N+](=O)[O-])cc1OC", "Potency": "inconclusive [inhibitor, partial curve, poor fit]"},
      {"smiles": "CCOC(=O)N1CCN(S(=O)(=O)c2c(C)cc(C)cc2C)CC1", "Potency": "inactive"},
      {"smiles": "CCN(CC(=O)Nc1ccccc1OC)CC(=O)Nc1sccc1C#N", "Potency": "inconclusive [inhibitor, single point]"},
      {"smiles": "COc1ccc(O)c(-c2cc(-c3cccs3)[nH]n2)c1", "Potency": "inconclusive [inhibitor, single point]"},
      {"smiles": "CCc1cccc(CN2CCC(CNC(=O)Nc3ccc(Cl)cc3)CC2)c1", "Potency": "active: 4.65 µM"},
      {"smiles": "CC(C)(C)c1ccc(/C=C(\\C#N)C(=O)NCCN2CCOCC2)cc1", "Potency": "inconclusive [inhibitor, partial curve, poor fit]"},
      {"smiles": "CCOc1ccc(N2Cc3ccccc3C2)cc1", "Potency": "inconclusive [inhibitor, full curve]"},
      {"smiles": "CCN(CC)S(=O)(=O)c1ccc(N2CCCC2)c(NS(=O)(=O)c2cccs2)c1", "Potency": "inconclusive [inhibitor, partial curve, poor fit]"},
      {"smiles": "CN(C)CCn1c(SCc2ccccc2C#N)nc2c(sc3ccccc32)c1=O", "Potency": "inconclusive [inhibitor, partial curve, poor fit]"},
      {"smiles": "CC1Cc2ccccc2N1Cc1nc2cc(C(F)(F)F)ccc2c(=O)[nH]1", "note": "(configuration not stated)", "Potency": "inconclusive [inhibitor, single point]"},
      {"smiles": "O=C(O)C1CC(=O)N(c2ccc(OCc3ccccc3Cl)cc2)C1", "note": "(configuration not stated)", "Potency": "inactive"},
      {"smiles": "CCOc1ccc(C(=O)NC(=S)Nc2ccccc2N2CCC(C)CC2)cc1[N+](=O)[O-]", "Potency": "inconclusive [inhibitor, partial curve, poor fit]"},
      {"smiles": "CCCS(=O)(=O)N1CCCC(C(=O)NCCN(CC)c2ccccc2)C1", "note": "(configuration not stated)", "Potency": "inconclusive [inhibitor, single point]"},
      {"smiles": "COc1cccc(OC)c1C1=NCC(=O)Nc2c1oc1ccc(Br)cc21", "Potency": "inconclusive [inhibitor, partial curve]"},
      {"smiles": "COc1cc2c(cc1OC)CN(c1ccc(-c3ccccc3OC)nn1)CC2", "Potency": "active: 5.22 µM"},
      {"smiles": "O=C(NCC(c1ccco1)N1CCc2ccccc21)c1ccccc1", "note": "(configuration not stated)", "Potency": "inconclusive [inhibitor, partial curve, poor fit]"},
      {"smiles": "COc1ccccc1C(=O)NCCC(=O)N(Cc1ccco1)Cc1cccs1", "Potency": "inconclusive [inhibitor, single point]"},
      {"smiles": "Cc1ccc(Cl)cc1NC(=S)N(Cc1ccco1)C(C)c1cccs1", "note": "(configuration not stated)", "Potency": "active: 14.7 µM"},
      {"smiles": "Cc1ccc(OCCCCNC2CCCC(C)C2C)c(C)c1", "note": "(configuration not stated)", "Potency": "inconclusive [inhibitor, single point]"},
      {"smiles": "COc1ccc(CN(C)C(=O)CCCNC(=O)c2ccc(Cl)cc2)cc1", "Potency": "inactive"},
      {"smiles": "O=C(NCCCN1CCOCC1)c1cccc(S(=O)(=O)Nc2ccc(F)cc2)c1", "Potency": "inconclusive [inhibitor, single point]"},
      {"smiles": "Cc1ccc(NC(=O)Cn2ncc(Cl)c(Cl)c2=O)cc1S(=O)(=O)N1CCCCC1", "Potency": "inconclusive [inhibitor, single point]"},
      {"smiles": "O=S(=O)(c1cccs1)n1cnc2ccccc21", "Potency": "inconclusive [inhibitor, single point]"},
      {"smiles": "COc1ccc(CNC(=O)CCCn2nc(C)c3c(C)n(-c4ccccc4)nc3c2=O)cc1", "Potency": "inactive"},
      {"smiles": "CCOC(=O)C1=C(N)Oc2ccc3ccccc3c2C1c1ccc(O)cc1", "note": "(configuration not stated)", "Potency": "inactive"},
      {"smiles": "C#CCOCCOCCOCCNc1nc(N2CCN(C(=O)CCCCCCCCCCNC(=O)Cn3cc(CCCCCN)nn3)CC2)nc(N2CCN(C(=O)CCCCCCCCCCNC(=O)[C@@H](CCSC)n3cc(CCO)nn3)CC2)n1", "Potency": "active: 1.17 µM"},
      {"smiles": "CN(C)C(=O)Oc1ccc(Cl)c2ccccc12", "Potency": "inactive"},
      {"smiles": "Cc1ccc2c(c1)nnn2C1CCN(CC(=O)Nc2ccc(F)cc2)CC1", "Potency": "inconclusive [inhibitor, single point]"},
      {"smiles": "COc1ccc(/C=C/S(=O)(=O)NCc2ccccc2)cc1OC", "Potency": "active: 11.7 µM"},
      {"smiles": "COc1ccc(Nc2nnc(SCc3cc([N+](=O)[O-])cc4c3OCOC4)s2)cc1", "Potency": "inactive"},
      {"smiles": "Cc1ccc(N(C(=O)c2csnn2)C(C(=O)NCc2ccccc2)c2cccnc2)cc1", "note": "(configuration not stated)", "Potency": "inconclusive [inhibitor, single point]"},
      {"smiles": "COCCNC(=O)/C=C/c1c(Cl)cccc1Cl", "Potency": "inactive"},
      {"smiles": "CCC(C)NC(=O)C(Sc1ccccc1)c1ccccc1", "note": "(configuration not stated)", "Potency": "inconclusive [inhibitor, single point]"},
      {"smiles": "Cc1nc2c(C#N)cnn2c2c1CCN(Cc1ccccc1)N2C", "Potency": "inconclusive [inhibitor, single point]"},
      {"smiles": "CCN(c1ccc(OC)cc1)S(=O)(=O)c1nnc(NC(=O)COc2ccccc2)s1", "Potency": "inactive"},
      {"smiles": "Cc1cc(Nc2ccc(Cl)cc2)nc(NCc2ccccc2)n1", "Potency": "active: 0.928 µM"},
      {"smiles": "Cc1cnc(NC(=O)c2cc3ccccc3o2)s1", "Potency": "inactive"},
      {"smiles": "COc1ccc(Cl)cc1C(=O)Nc1nc2ccc(S(C)(=O)=O)cc2s1", "Potency": "inactive"},
      {"smiles": "CCOc1ccc(S(=O)(=O)N(CC)CC(=O)NCc2ccncc2)cc1C", "Potency": "inactive"},
      {"smiles": "CC(C)(CC(=O)O)CC(=O)N1CCCN(c2nc3ccc(Cl)cc3s2)CC1", "Potency": "inactive"},
      {"smiles": "C=CCn1c(SCc2c(F)cccc2Cl)nnc1-c1ccco1", "Potency": "inconclusive [inhibitor, single point]"},
      {"smiles": "CCOc1cc(NC(=S)Nc2ccccc2)c(OCC)cc1NC(=O)c1ccccc1", "Potency": "inconclusive [inhibitor, partial curve, poor fit]"},
      {"smiles": "CC(=O)c1ccc(NC(=O)CSc2ccc3nnc(-c4ccccn4)n3n2)cc1", "Potency": "inconclusive [inhibitor, full curve]"}
    ]}
  ]
}
